According to PubChem BioAssay AID1240 (Sanford-Burnham Center for Chemical Genomics, 2008):
About 800 (1.6%) of roughly 50,000 compounds showed an effect of 50% or more. The list shows a part of the results.

biological target: Bcl-2-like protein 10 (Homo sapiens) (UniProt Q9HD36); assay: Phenotype converters, Bcl-B/TR3 peptide binding displacement, primary biochemical FP (AID 1240); details: GST-Bcl-B / FITC-TR3 peptide fluorescence polarization; stronger effect = higher value; compound at 3.75 mg/L;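 also: 0% = Bcl-B with tracer peptide and DMSO and 100% = tracer peptide lacking Bcl-B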
Chain of UniProt Q9HD36 (Q9HD36 whole entry, looked up): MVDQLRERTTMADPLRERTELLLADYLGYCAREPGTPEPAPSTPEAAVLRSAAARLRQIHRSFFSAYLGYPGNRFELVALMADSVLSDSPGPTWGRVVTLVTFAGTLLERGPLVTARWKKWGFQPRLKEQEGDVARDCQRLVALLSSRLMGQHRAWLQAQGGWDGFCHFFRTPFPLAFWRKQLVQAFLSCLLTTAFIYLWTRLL

Compound | displacement [%]
COc1ccc(Br)cc1C(=O)Nc1ccc(N2CCOCC2)cc1 | 8.6
COc1cc(NC(=O)c2ccc3c(c2)C(=O)N(CC2CCCO2)C3=O)c(C(=O)O)cc1OC (stereo not given) | 11
CCC(Oc1ccccc1)C(=O)Nc1cccc(F)c1 (stereo not given) | 10.7
COc1ccc(-c2csc(NC(=O)c3ccccc3OC)c2C(=O)O)cc1 | -0.3
O=C1Nc2ccccc2C1=Cc1nc2ccccc2c(=O)n1-c1cccc2ccccc12 | -2.3
CC(C)Oc1cccc(-c2cc(C(=O)O)c3ccccc3n2)c1 | -3.8
COc1ccc(NC(=O)Nc2ccccc2OC)cc1 | 3.7
COCCCNC(=O)c1ccc(Br)cc1 | -10
O=C(NC(=S)Nc1nc(-c2ccccc2)cs1)c1ccccc1 | -5.7
O=C(CCCC(=O)OCC(F)(F)C(F)F)Nc1ccc(NC(=O)CCCC(=O)OCC(F)(F)C(F)F)cc1 | 7.8
c1ccc2c(c1)OCC(CSc1nc3ccccc3[nH]1)O2 (stereo not given) | -25.1
CCCCNC(=O)/C(=C/c1ccc(OC)cc1)NC(=O)c1ccc([N+](=O)[O-])cc1 | -2.4
O=C(Nc1cc(Cl)ccc1C(=O)O)c1ccc2c(c1)C(=O)N(c1ccccc1-c1ccccc1)C2=O | -3.2
O=C1NN=C2C3CCC4CC12CC1(C3)C(=O)NN=C41 | 4.5
O=C(O)CCCC(=O)N1N=C(c2ccc(Br)cc2)CC1c1ccco1 (stereo not given) | 13.8
CCOC(=O)c1c(NC(=O)c2ccc(C)o2)sc2c1CCCCCC2 | -9.7
O=C(Nc1ccc(Cl)cn1)C(c1ccccc1)c1ccccc1 | -18.5
CN1CCN(c2cc(=O)n(-c3ccccc3)c3ccccc23)CC1 | -2.6
O=C(Oc1ccc([N+](=O)[O-])cc1)c1ccc(-c2ccccc2)cc1 | 3.2
COc1cc(C(=O)Nc2c(-c3ccccc3)c3cc(Br)ccc3[nH]c2=O)cc(OC)c1OC | 10.5
COc1ccc(N(CC(=O)N2CCOCC2)S(=O)(=O)c2ccc(C)cc2)cc1 | 0.2
CCCOc1ccc(C(=O)N2CCN(c3ccc([N+](=O)[O-])cc3)CC2)cc1 | 0.8
On1c(-c2ccco2)nc2c1CCc1nonc1-2 | 15.9
COc1ccccc1N1N=C(c2ccc([N+](=O)[O-])cc2)CC1c1ccccc1 (stereo not given) | -4.8

Compound | displacement [%]
CCOc1c(C=C2C(=O)NC(=O)NC2=O)cccc1OC | 8.1
O=C(/C=C/c1ccccc1)NC(=S)Nc1ccc(Br)cc1 | 6.2
Clc1ccc(-c2noc(COc3ccc4ccccc4c3)n2)cc1 | 10.5
O=S(=O)(NCc1ccc2c(c1)OCO2)c1cccs1 | -6.7
O=S(=O)(NCc1ccc2c(c1)OCO2)c1ccc(Br)cc1 | 38.4
Cc1ccc2c(-c3ccc([N+](=O)[O-])cc3)cc(=O)[nH]c2c1 | 14.1
COC(=O)c1c(C)oc2cc(Br)c(O)cc12 | 6.1
C=CCOc1ccc(/C=c2/sc3n(c2=O)C(c2ccc(OC)c(OC)c2)C(C(=O)OC)=C(C)N=3)cc1 (stereo not given) | 106
Cc1ccc(S(=O)(=O)NC2=NCN(Cc3ccccc3)CN2)cc1 | -0.6
O=C(Nc1cccc(F)c1)c1ccc(I)cc1 | 7.1
Cc1ccc(OCC(=O)Nc2ccc(Nc3ccccc3)cc2)c(C)c1 | 1.8
O=C(c1ccc([N+](=O)[O-])cc1)N1CCN(CCCc2ccccc2)CC1 | -3.7
O=C(N/N=C/c1ccc(/C=N/NC(=O)Nc2ccccc2)cc1)Nc1ccccc1 | -8.5
O=C(NCC1CCCO1)c1cc2nc(-c3ccc(F)cc3)cc(C(F)(F)F)n2n1 (stereo not given) | -1.9
COc1ccc2ccccc2c1C=Nc1ccc(Cl)c([N+](=O)[O-])c1 | -6.6
CC1=C(C(=O)Nc2ccc(Br)cc2)C(c2ccccc2F)NC(=O)N1 (stereo not given) | -7.9
Cc1occc1C(=O)NCC1CCCO1 (stereo not given) | 9.1
CCOC(=O)c1sc(NC(=O)CN2CCOCC2)c(C(=O)OCC)c1C | -0.6
COc1ccc(N(CC(=O)Nc2ccc(Oc3ccccc3)cc2)S(C)(=O)=O)cc1 | 6.5
Cc1ccc(OCCOCCOc2ccc(Cl)cc2/C=C2/SC(=S)NC2=O)cc1 | -1.9
CCC(=O)NC(OCc1ccccc1)(C(F)(F)F)C(F)(F)F | 10
COc1cc(/C=C2\C(=O)NC(=O)N(c3ccc(F)cc3)C2=O)ccc1OCc1ccc(C(=O)O)cc1 | -1.7
O=C(CSc1n[nH]c(=O)[nH]c1=O)N/N=C/C=C\c1ccccc1 | -3.3
FC(F)(F)c1nc2ccccc2n1CC#CCn1c(C(F)(F)F)nc2ccccc21 | -1.1

Compound | displacement [%]
O=C(COC(=O)c1ccc(C#Cc2ccccc2)cc1)c1ccc(Br)cc1 | 1.7
CC(C)CN(CC(C)C)C(=O)/C=C/c1ccccc1 | 15
CC1S/C(=N/N=C/c2ccccc2Cl)NC1=O (stereo not given) | 1.2
O=C(CSc1nnc2c(n1)[nH]c1ccccc12)NCCO | -3.3
CCOc1ccc(N2C(=O)CC(N3CCC(Cc4ccccc4)CC3)C2=O)cc1 (stereo not given) | 5
O=C1NN(c2ccccc2)C(=O)/C1=C/c1cc([N+](=O)[O-])c(Cl)cc1Cl | 9.5
CCCc1ccc(-c2csc(N)n2)cc1 | 2.2
CCN(c1nc(C)cc(OC)n1)S(=O)(=O)c1ccccc1 | -7.2
COc1ccc(CC(=O)Nc2ccc(Br)cc2)cc1OC | 11.6
CCOC(=O)C1CCN(C2CC(=O)N(c3cccc(Cl)c3)C2=O)CC1 (stereo not given) | 6.6
COc1ccc(C2=NN(c3nc(-c4ccc(OC)c(F)c4)cs3)C(c3ccc(OC)cc3)C2)cc1 (stereo not given) | 4.1
C=COCCNC(=O)C(=O)Nc1ccc(C)cc1C | -7.6
CCc1cc2c(N3CCCCC3)ncnc2s1 | -2.1
O=C1C(=Cc2ccccc2)C(=O)c2ccccc21 | 17.6
Cc1ccc(/C=C(\C#N)c2nc(-c3ccc([N+](=O)[O-])cc3)cs2)o1 | 3.5
CCOc1cc(C(=S)N2CCOCC2)cc(Br)c1OC(=O)c1ccc([N+](=O)[O-])cc1 | -0.9
Cc1cc(C)cc(NC(=O)c2ccc(C)c([N+](=O)[O-])c2)c1 | 14.8
COc1cc(/C=N/n2nnnc2N)cc(OC)c1OC | 9.1
Cc1ccccc1OCC(=O)O/N=C(\N)c1cccnc1 | 2.5
Nn1c(N2CCOCC2)nc2ccccc21 | 3.1
CC(=O)Oc1cc(-c2nc3ccccc3c(=O)o2)cc(-c2nc3ccccc3c(=O)o2)c1 | 9.5
Cc1cc([N+](=O)[O-])ccc1N=Cc1cccc(O)c1O | 3.7
